# Measured values reported in PubChem BioAssay AID686970 (National Center for Advancing Translational Sciences (NCATS), 2013).
# Hit rate of the full screen: of about 360,000 compounds, about 6,000 (1.7%) were called active. The inconclusive results got no clear call from the source; some entries with a clear call stand among them for comparison. The call rests on the fitted dose curve; in most records, active means well fitted cell-killing curve with a large enough effect; inconclusive means small, poorly fitted or top-dose-only effect, or effect the other way; inactive means flat fitted curve, though single readings scatter. Potencies of inconclusive entries are left out as doubtful fits.
# Experiment: qHTS for induction of synthetic lethality in tumor cells producing 2HG: qHTS for the HT-1080-NT fibrosarcoma cell line;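 further: NT is the 2HG producing partner of a matched IDH1 knockdown line; nearly all actives have a fitted effect of over 55% in size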;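 on activity, negative = less viability: 0% = DMSO-treated cells and -100% = media-only wells without cells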
# Conditions: HT-1080-NT fibrosarcoma viability, CellTiter-Glo ATP luminescence, 48 h; activity, negative = less viability: at 46.1 µM (top of the series) unless noted
# Method in brief: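 HT-1080-NT; 750 cells/well; 5% FBS RPMI; 48 h compound, 37 degrees C; CellTiter-Glo luminescence; curve fitting and curve-class assignment.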
# Potency means the concentration at half of the fitted maximal effect; tags describe the fitted curve by direction and shape.
Compound,Potency,"activity, negative = less viability"
Cc1ccccc1Cn1c(=N)n(CC(O)c2ccco2)c2ccccc21 (stereo not given),"inconclusive [cytotoxic, single point]",–
O=C(CC1NCCNC1=O)Nc1ccc(Oc2ccccc2)cc1 (stereo not given),"inconclusive [cytotoxic, single point]",–
CCOc1ccc2oc(C(=O)OCC(=O)NCC3CCCO3)c(C)c2c1 (stereo not given),inactive,–
C=CCNC(=S)N/N=C/c1ccc(-c2ccc(Cl)cc2Cl)o1,"inconclusive [cytotoxic, single point]",–
OC(c1cc(F)cc(Cl)c1)c1ncc(-c2ccc(Cl)cc2)[nH]1 (stereo not given),"inconclusive [cytotoxic, single point]",–
COCc1nnc(NC(=O)c2ccc(S(=O)(=O)N(C)C3CCCCC3)cc2)o1,"inconclusive [cytotoxic, single point]",–
Cc1ccc(NC2=NCC(=O)N2Cc2ccc3c(c2)OCO3)cc1,inactive,–
CCn1cnc2c1c(=O)n(Cc1cccc(Br)c1)c(=O)n2Cc1ccccc1,"inconclusive [cytotoxic, single point]",–
Cc1ccc(C2=NNC(=Nc3ccc(F)cc3)SC2)cc1,"inconclusive [cytotoxic, partial curve]",–
O=C(CN1C(=O)C(=O)N(Cc2ccco2)C1=O)c1c[nH]c2ccccc12,"inconclusive [cytotoxic, single point]",–
COC(=O)c1c(Cl)c2n3ccccc3c(C)c(-c3ccccc3)c-2c1C(=O)OC,inactive,–
O=C(CCl)NN1C(=O)NC(c2ccccc2)(c2ccccc2)C1=O,"inconclusive [cytotoxic, single point]",–
CCc1nnc(NC(=O)c2ccc(S(=O)(=O)N3CCCC(C)C3)cc2)o1 (stereo not given),"inconclusive [cytotoxic, single point]",–
COc1ccc(NC(=O)CNC(=O)c2sc3ccccc3c2Cl)c(OC)c1,"inconclusive [cytotoxic, single point]",–
CC(C)c1nc2oc3c(N4CCNCC4)ncnc3c2c2c1CCC2,inactive,–
COCCCN(C(=S)Nc1ccc(C)cc1Cl)C(C)c1ccncc1 (stereo not given),inactive,–
COc1ccc(NC(=S)NCCCN2CCN(C3CCCCC3)CC2)cc1,inactive,–
COc1ccc2sc(-c3ccc(N(C)C)cc3)c(C#CCO)c2c1,"inconclusive [cytotoxic, single point]",–
O=C1C=C(N2CCCCCC2)C(=O)N1c1ccc(Cl)cc1,–,inconclusive: 20.9%
CC(=O)Nc1cccc(-c2cc(NC(C)=O)c3ncc(-c4cccc(C(F)(F)F)c4)n3c2)c1,inactive,–
CCOC(=O)N1CCC(=NNc2ccc(S(N)(=O)=O)cc2[N+](=O)[O-])CC1,"inconclusive [cytotoxic, partial curve]",–
CC(C)(C)c1nnc(N/N=C/c2cc(Br)ccc2O)n(N)c1=O,–,inconclusive: -19.1% [cytotoxic]
CC(=O)c1ccc(NC(=O)Nc2ccc(NS(=O)(=O)c3ccc(C)cc3)cc2)cc1,"inconclusive [cytotoxic, single point]",–
C=CCNC(=O)c1cc2c(=O)c3ccccc3oc2nc1C,"inconclusive [cytotoxic, single point]",–

Compound,Potency,"activity, negative = less viability"
C=CC(=O)N1C/C(=C/c2ccc(F)cc2)C(=O)/C(=C\c2ccc(F)cc2)C1,"inconclusive [cytotoxic, full curve]",–
CCc1ccc(OCC2c3cc(OC)c(OC)cc3CCN2C(C)=O)cc1 (stereo not given),active: 16.4 µM,–
Cc1c(N=Cc2ccc(Br)s2)cccc1[N+](=O)[O-],"inconclusive [cytotoxic, single point]",–
COc1cccc(NC(=O)Cn2nc(Cc3cccnc3)c3ccccc3c2=O)c1,inactive,–
CCN1C(=O)C(=O)N(CC(=O)N(C)CC(=O)Nc2ccccc2C(F)(F)F)C1=O,inactive,–
CCOC(=O)[C@]12CCCC=C1N(Cc1cccc3ccccc13)C(=O)[C@H](CC(=O)NCc1ccccc1)C2,"inconclusive [cytotoxic, single point]",–
CC(C)(C)CC(=O)NC(=S)Nc1ccccc1C(F)(F)F,"inconclusive [cytotoxic, single point]",–
CCc1cc2ccccc2nc1Cl,"inconclusive [rising, single point]",–
O=C(Nc1ccc(Cl)c(Cl)c1)C1CC(=O)N(c2ccc(Br)cc2)C1 (stereo not given),"inconclusive [cytotoxic, single point]",–
CCCCCc1c(-c2cccc(F)c2)ncn1CCc1ccccc1OC,"inconclusive [cytotoxic, single point]",–
COc1ccc(NC(=O)CSc2nnc(C3CCCCC3)n2N)cc1OC,"inconclusive [rising, single point]",–
CCOC(=O)c1c(-c2cccc([N+](=O)[O-])c2)csc1NC(=O)C1CC1,"inconclusive [cytotoxic, single point]",–
CC(C)(CNC(=O)c1ccc([N+](=O)[O-])c(Cl)c1)CNC(=O)c1ccc([N+](=O)[O-])c(Cl)c1,active: 20.6 µM,–
CN(C)S(=O)(=O)c1ccc(C(=O)Nc2nnc(Cc3ccccc3)s2)cc1,"inconclusive [cytotoxic, single point]",–
Cc1ccccc1-n1c(=O)cc(N2CCN(Cc3ccccc3)CC2)[nH]c1=O,inactive,–
CCOC(=O)c1c(-c2ccc(C)cc2)csc1NC(=O)c1cc2ccccc2oc1=O,"inconclusive [rising, partial curve, poor fit]",–
CCOc1cc(CN2CCC(CO)(Cc3cccc(C(F)(F)F)c3)CC2)ccc1OC,active: 20.6 µM,–
C/C(=N\NC(=O)c1c(Cl)c(C)nn1C)c1ccc(NC(=O)C2CCC2)cc1,active: 1.64 µM,–
COc1ccc(NC2CCCN(Cc3cccc4cnccc34)C2)cc1 (stereo not given),inactive,–
CCC(C(=O)NC(C)(C)C)N(Cc1ccc(F)cc1)C(=O)c1snc(C(N)=O)c1N (stereo not given),inactive,–
CC(C)(c1ccccc1)c1ccc(OCCCNCCO)cc1,"inconclusive [cytotoxic, single point]",–
O=C(Nc1ccon1)c1ccccc1F,–,inconclusive: 32%
CCOC(=O)C1(N(CC)CC)Sc2cc(C)ccc2NC1=O (stereo not given),"inconclusive [cytotoxic, single point]",–
O=C(Nc1cccc(S(=O)(=O)N2CCCCC2)c1)c1ccccc1NS(=O)(=O)c1ccc(F)cc1,"inconclusive [cytotoxic, single point]",–

Compound,Potency,"activity, negative = less viability"
Cc1cccc(C(=O)NNC(=O)C23CC4CC(CC(C4)C2)C3)c1O,"inconclusive [cytotoxic, full curve, poor fit]",–
O=C1C=CC(=O)c2c(O)c(N3CCN(CCOCCO)CC3)c(Br)c(O)c21,"inconclusive [cytotoxic, single point]",–
CNC(=O)c1ccc(NC(=O)c2ccccc2OCc2c(C)noc2C)cc1,inactive,–
COc1ccc(CNC(=O)C[C@H]2C[C@H](C(=O)N3CCCCC3)[C@@]3(CCc4ccccc4)c4[nH]c5cc(-c6ccco6)ccc5c4CCN3C2=O)cc1OC,inactive,–
CC(=O)Nc1ccc(Cl)cc1C(=O)c1ccc[nH]1,inactive,–
CCN(c1cccc(C)c1)S(=O)(=O)c1ccc2c(c1)CCN2C(C)=O,"inconclusive [cytotoxic, single point]",–
O=C(CCC(=O)N1CCOc2ccccc21)Nc1ccccc1Br,–,inconclusive: 36.2%
COc1cc2c(c(OC)c1OC)-c1ccc(N(C)CC(OC)OC)c(=O)cc1[C@@H](NC(C)=O)CC2,"inconclusive [cytotoxic, full curve]",–
COCCN(C(=O)c1cc2c(s1)CCCCC2)c1c(N)n(Cc2ccccc2)c(=O)[nH]c1=O,inactive,–
O=C(COc1ccccc1)N1CCN(c2nnc(-c3ccccc3)c3ccccc23)CC1,"inconclusive [cytotoxic, single point]",–
CC(C)N(Cc1ccccc1)C(=O)COC(=O)c1ccc(O)cc1,inactive,–
CC(=O)Oc1ccc(N(C(C)=O)S(=O)(=O)c2ccc(Cl)cc2)c2ccccc12,"inconclusive [cytotoxic, single point]",–
Cc1ccc(C(=O)c2oc3ccccc3c2N)cc1,"inconclusive [cytotoxic, partial curve]",–
Cc1cc(NC(=O)CSc2nc(C3CC3)nc3sc(C)c(C)c23)no1,"inconclusive [cytotoxic, full curve, poor fit]",–
Cc1cccc(C)c1NC(=O)C(c1ccc(C#N)cc1)n1c(=O)c(-c2cc3ccccc3[nH]2)nc2ccccc21 (stereo not given),"inconclusive [cytotoxic, partial curve, poor fit]",–
CCOc1ccccc1C(=O)NC(C(=O)NCCc1ccccn1)C(C)C (stereo not given),inactive,–
CCCCC[C@@H](C)N1C[C@H](COCc2ccccc2)Oc2cc(N3CC[C@@H](N(C)C)C3)ccc2S1(=O)=O,active: 11.6 µM,–
COc1ccc(-c2cn[nH]c2-c2ccc(OCc3ccccc3)cc2O)cc1OC,"inconclusive [cytotoxic, single point]",–
N#Cc1c(C(F)(F)F)cc(-c2cccc(Cl)c2)[nH]c1=O,"inconclusive [cytotoxic, single point]",–
O=C1COc2ccc(C(=O)c3ccccc3C(=O)NCc3ccco3)cc2N1,inactive,–
CCC1CCCCN1CC(=O)Nc1cc(C)nn1-c1nc(C)cc(C)n1 (stereo not given),active: 3.55 µM,–
COc1ccc2nc(Nc3nc(CSc4nc5ccccc5[nH]4)cc(=O)[nH]3)nc(C)c2c1,"inconclusive [cytotoxic, single point]",–
